For 102 sequences, TetR repression strength results are on record in a collection of fitness landscapes (doi:10.1038/s41467-024-54723-y).

The full ranking holds about 18,000 sequences; the median of “TetR repression strength (sort-seq, GFP reporter)” is about 0.23, and the highest 2% start at about 0.68. Some of the results follow.

Sequence of UniProt P04483 (P04483 whole entry): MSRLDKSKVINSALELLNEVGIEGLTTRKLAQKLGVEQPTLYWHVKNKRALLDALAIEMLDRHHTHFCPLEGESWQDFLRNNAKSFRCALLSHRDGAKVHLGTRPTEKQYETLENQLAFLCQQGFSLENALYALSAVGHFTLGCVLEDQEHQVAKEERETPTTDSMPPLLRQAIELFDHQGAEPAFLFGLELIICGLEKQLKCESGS

The target of this test is TetR (class B, Tn10) (UniProt P04483). In words: TetR repression strength (sort-seq, GFP reporter) (relative to tetO2 = 1); higher = stronger repression. The note with it: E. coli. In short, it runs like this:
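Three independent transformations of E. coli SIG10-MAX were made with a low-copy plasmid library randomizing eight operator positions between a constitutive promoter and sfGFP, with constitutive TetR. Following 5 h at 37 °C in LB plus 50 µg/mL chloramphenicol, 10^6 cells went through FACS into 13 fluorescence bins, and each bin was sequenced by Illumina. Repression strength was defined as the top bin index plus one minus the read-weighted mean bin, divided by the unaltered operator's value. Averages included only members reaching ≥30 reads in all replicates with a CV ≤0.5.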
With TCCCAATCAGTTAGTGAGA, the TetR repression strength came out at 0.419.
The figure for TCCCTTGTAGTCGTCGAGA is 0.117.
The figure for TCCCTAGAAGTAAGAGAGA is 0.095; for TCCCATAAAGTTAGGGAGA it is 0.368; for TCCCAACTAGTATAGGAGA it is 0.235.
With TCCCGATTAGTTGGGGAGA, the TetR repression strength was 0.235.
The same measure for TCCCGGGAAGTTGGTGAGA: 0.172; for TCCCGGCTAGTCTCGGAGA: 0.237.
The figure for TCCCGATTAGTTAGGGAGA is 0.178; for TCCCTGCTAGTTTTTGAGA it is 0.414.
The figure for TCCCGTTCAGTGATCGAGA is 0.724; for TCCCACCGAGTGGGTGAGA it is 0.207; for TCCCTGATAGTGTGAGAGA it is 0.266.
Turning to TCCCAACGAGTACTCGAGA, the TetR repression strength was 0.204.
Consider TCCCAGACAGTGGCTGAGA, for which the TetR repression strength was 0.193.
The same measure for TCCCACGTAGTGTACGAGA: 0.291.
The figure for TCCCACCGAGTCTTCGAGA is 0.406.
In turn, TCCCTTTGAGTTTAGGAGA displayed a TetR repression strength of 0.262.
The figure for TCCCTTGTAGTTAATGAGA is 0.289.
TCCCTACGAGTGGTAGAGA had a TetR repression strength of 0.307.
With TCCCATCGAGTTTGCGAGA, the TetR repression strength was determined as 0.263.
The figure for TCCCAGTAAGTGATGGAGA is 0.226; for TCCCTGCCAGTTAGGGAGA it is 0.298.
The figure for TCCCTTGCAGTGATAGAGA is 0.657; for TCCCGGCCAGTAGTGGAGA it is 0.288.
The sequence TCCCTGATAGTTTACGAGA yielded a TetR repression strength of 0.253.
TCCCCCCCAGTTGGGGAGA yielded a TetR repression strength of 0.523.
TCCCAGGGAGTGGTTGAGA had a TetR repression strength of 0.648.
For TCCCCAGCAGTGAATGAGA, the TetR repression strength was 0.346.
The same measure for TCCCAACGAGTCTGGGAGA: 0.186; for TCCCGGGCAGTAATCGAGA: 0.121; for TCCCCAGAAGTGCCAGAGA: 0.0748.
The figure for TCCCTAACAGTTGTAGAGA is 0.156; for TCCCGCAAAGTAATGGAGA it is 0.518; for TCCCTTGAAGTAGGTGAGA it is 0.116.
The same measure for TCCCGGGGAGTACAGGAGA: 0.319; for TCCCATGTAGTTGCCGAGA: 0.295; for TCCCAGTAAGTCGTGGAGA: 0.182.
Sequence TCCCATCCAGTCAATGAGA displayed a TetR repression strength of 0.0518.
The figure for TCCCAGTCAGTGGTCGAGA is 0.249; for TCCCTAGTAGTACATGAGA it is 0.0537; for TCCCCTTTAGTATGGGAGA it is 0.237.
The sequence TCCCCATGAGTGTGGGAGA came in with a TetR repression strength of 0.275.
The figure for TCCCTTAGAGTAAGCGAGA is 0.225; for TCCCAATTAGTAATCGAGA it is 0.136; for TCCCGACTAGTCAGAGAGA it is 0.236.
The same measure for TCCCTAAAAGTGGATGAGA: 0.0992.
The same measure for TCCCGAATAGTACGAGAGA: 0.498; for TCCCAAGTAGTATGGGAGA: 0.175; for TCCCGTCCAGTGTGTGAGA: 0.22.
Turning to TCCCGGTGAGTGAGTGAGA, the TetR repression strength was 0.315.
The same measure for TCCCGTCAAGTTGAGGAGA: 0.236.
TCCCTGGGAGTGGGGGAGA gave a TetR repression strength of 0.138.
TCCCGTCTAGTCTTGGAGA: the TetR repression strength was determined as 0.212.
The same measure for TCCCAACTAGTAAAAGAGA: 0.358; for TCCCACGTAGTTGAGGAGA: 0.136.
TCCCGCCTAGTAAGCGAGA had a TetR repression strength of 0.294.
The same measure for TCCCCTGAAGTCCAGGAGA: 0.138; for TCCCGATAAGTGATAGAGA: 0.733; for TCCCGATAAGTGGCCGAGA: 0.171.
Turning to TCCCGGTGAGTCTGGGAGA, the TetR repression strength turned out to be 0.254.
The same measure for TCCCGTACAGTTTCAGAGA: 0.244; for TCCCTGTCAGTGTACGAGA: 0.286; for TCCCGGCTAGTACATGAGA: 0.365.
TCCCACGAAGTATCGGAGA: the TetR repression strength came to 0.161.
As for TCCCAAACAGTTAGCGAGA, the TetR repression strength was determined as 0.16.
The same measure for TCCCCGCCAGTTGGCGAGA: 0.16; for TCCCGGGCAGTGATGGAGA: 0.427.
Take TCCCCGAAAGTCATAGAGA: the TetR repression strength came to 0.452.
For the sequence TCCCTGGTAGTGGTTGAGA, the TetR repression strength was 0.282.
The figure for TCCCTAAAAGTTGTAGAGA is 0.0907.
TCCCGTTAAGTTAGCGAGA registered a TetR repression strength of 0.247.
The figure for TCCCGGGGAGTAAGTGAGA is 0.224.
The figure for TCCCCGTGAGTACAGGAGA is 0.239; for TCCCTAGGAGTCCTGGAGA it is 0.487; for TCCCAGTGAGTGGGGGAGA it is 0.201.
The figure for TCCCCAGCAGTTGATGAGA is 0.136.
Turning to TCCCGTGTAGTGGGGGAGA, the TetR repression strength amounted to 0.275.
The figure for TCCCGCTTAGTACCGGAGA is 0.233; for TCCCGGGTAGTATCCGAGA it is 0.274; for TCCCAGCGAGTGGACGAGA it is 0.461.
The figure for TCCCCCTAAGTGGTGGAGA is 0.159; for TCCCAGGCAGTTAATGAGA it is 0.426; for TCCCAACAAGTAAACGAGA it is 0.104.
The same measure for TCCCAGCGAGTCGTTGAGA: 0.144; for TCCCAGTGAGTAGTTGAGA: 0.149.
TCCCTTTCAGTGTCTGAGA gave a TetR repression strength of 0.352.
The figure for TCCCGGTAAGTTTGAGAGA is 0.4; for TCCCCTCAAGTTATAGAGA it is 0.311; for TCCCCTGCAGTGGGCGAGA it is 0.272.
TCCCTCTCAGTTATCGAGA returned a TetR repression strength of 0.603.
The figure for TCCCGCGCAGTGGTCGAGA is 0.353; for TCCCAATGAGTTATGGAGA it is 0.388.
The figure for TCCCTCTCAGTACTAGAGA is 0.283.
Regarding TCCCCATAAGTTCAGGAGA, the TetR repression strength was 0.323.
The figure for TCCCAATAAGTTAGAGAGA is 0.0864.
TCCCTTACAGTAGGCGAGA registered a TetR repression strength of 0.245.
TCCCGCGTAGTTGTTGAGA: the TetR repression strength came out at 0.402.
Consider TCCCTTGTAGTGCCGGAGA, for which the TetR repression strength amounted to 0.516.
The same measure for TCCCGTCGAGTACATGAGA: 0.141; for TCCCAAAGAGTAGGGGAGA: 0.125.
TCCCCGTCAGTGGGGGAGA: the TetR repression strength is 0.328.
